{"sequences": {"note": "Protein sequences, listed by entry. Tags and fused reporters are not part of them. Residues count along the entry.", "UniProt Q92841": "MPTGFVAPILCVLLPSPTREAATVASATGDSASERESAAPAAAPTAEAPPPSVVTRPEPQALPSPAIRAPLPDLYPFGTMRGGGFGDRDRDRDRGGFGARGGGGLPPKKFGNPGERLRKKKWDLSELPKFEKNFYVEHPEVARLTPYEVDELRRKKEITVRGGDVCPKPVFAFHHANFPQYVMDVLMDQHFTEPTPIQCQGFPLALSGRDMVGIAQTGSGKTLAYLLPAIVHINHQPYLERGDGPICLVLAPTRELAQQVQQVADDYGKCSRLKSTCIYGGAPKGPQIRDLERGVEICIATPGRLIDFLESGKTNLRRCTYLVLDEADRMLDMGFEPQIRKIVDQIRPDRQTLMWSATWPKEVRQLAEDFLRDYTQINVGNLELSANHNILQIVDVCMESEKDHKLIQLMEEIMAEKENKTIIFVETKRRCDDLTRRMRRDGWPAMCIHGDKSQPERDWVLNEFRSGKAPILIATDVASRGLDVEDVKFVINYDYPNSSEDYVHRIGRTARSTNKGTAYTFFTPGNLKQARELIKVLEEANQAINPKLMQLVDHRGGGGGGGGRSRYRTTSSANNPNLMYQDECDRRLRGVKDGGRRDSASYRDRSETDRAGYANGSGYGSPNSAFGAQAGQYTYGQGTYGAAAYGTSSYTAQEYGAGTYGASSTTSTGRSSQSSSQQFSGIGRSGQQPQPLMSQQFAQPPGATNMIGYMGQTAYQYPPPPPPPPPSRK", "UniProt P07996, residues 19-1170": "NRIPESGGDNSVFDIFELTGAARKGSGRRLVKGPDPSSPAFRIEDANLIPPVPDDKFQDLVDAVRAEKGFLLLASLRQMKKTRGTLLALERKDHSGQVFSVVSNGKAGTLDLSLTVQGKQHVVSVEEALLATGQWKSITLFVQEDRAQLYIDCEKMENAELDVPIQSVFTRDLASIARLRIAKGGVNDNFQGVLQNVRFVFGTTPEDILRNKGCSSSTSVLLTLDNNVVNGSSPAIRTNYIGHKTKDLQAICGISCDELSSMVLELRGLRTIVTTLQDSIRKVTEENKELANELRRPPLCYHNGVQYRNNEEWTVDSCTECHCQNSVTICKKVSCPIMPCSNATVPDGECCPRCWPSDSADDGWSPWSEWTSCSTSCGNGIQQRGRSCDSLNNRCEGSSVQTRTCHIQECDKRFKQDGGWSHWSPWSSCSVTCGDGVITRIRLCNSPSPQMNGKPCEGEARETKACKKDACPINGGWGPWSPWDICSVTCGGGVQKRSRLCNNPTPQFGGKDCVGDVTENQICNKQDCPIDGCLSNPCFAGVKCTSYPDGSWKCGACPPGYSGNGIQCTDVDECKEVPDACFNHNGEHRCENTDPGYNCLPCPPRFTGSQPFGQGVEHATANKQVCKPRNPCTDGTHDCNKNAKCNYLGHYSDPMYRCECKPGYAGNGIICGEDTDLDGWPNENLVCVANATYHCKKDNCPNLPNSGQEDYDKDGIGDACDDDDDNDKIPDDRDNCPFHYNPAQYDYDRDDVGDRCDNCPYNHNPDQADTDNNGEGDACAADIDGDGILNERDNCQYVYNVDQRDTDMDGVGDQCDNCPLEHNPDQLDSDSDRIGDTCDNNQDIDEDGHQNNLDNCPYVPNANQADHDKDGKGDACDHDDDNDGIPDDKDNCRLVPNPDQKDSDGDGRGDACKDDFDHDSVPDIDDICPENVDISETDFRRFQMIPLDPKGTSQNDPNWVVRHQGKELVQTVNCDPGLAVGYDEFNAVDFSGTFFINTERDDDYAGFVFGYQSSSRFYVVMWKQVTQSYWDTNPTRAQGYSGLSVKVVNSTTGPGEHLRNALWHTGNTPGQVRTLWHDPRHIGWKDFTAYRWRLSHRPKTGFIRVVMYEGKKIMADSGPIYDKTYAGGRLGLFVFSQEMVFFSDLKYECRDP"}, "source": "paper PMC9243429", "key": {"[1]": {"molecular_target": "DEAD-box RNA helicase 17 (DDX17) (human (endogenous in HepG2-NTCP)) (UniProt Q92841)", "experiment": "co-IP; reciprocal co-IP of DDX17 and its four candidate partners (Figure 5C); RIPA lysate, 600 ug total protein, primary antibody overnight at 4°C, protein A/G magnetic beads, Western blot; cells not given"}, "[2]": {"molecular_target": "DEAD-box RNA helicase 17 (DDX17) (human (endogenous in HepG2-NTCP)) (UniProt Q92841)", "experiment": "co-IP; co-IP with anti-DDX17 antibody in HBV-infected HepG2-NTCP cells transfected with a plasmid expressing ZWINT (Figure 5D); RIPA lysate, protein A/G magnetic beads, Western blot"}}, "note": "These are yes or no findings as the source states them, for the method shown. Binding seen in cells or lysates may run through a third protein. Some entries that bind do so weakly or less than the wild type.", "data": [{"molecule": "THBS1 (from UniProt P07996 19-1170)", "values": [{"measurement": "binding", "setting": "[1]", "result": "no binding"}]}, {"molecule": "ZW10 interacting kinetochore protein (ZWINT) (protein, UniProt O95229 1-277) MEAAETEAEAAALEVLAEVAGILEPVGLQEEAELPAKILVEFVVDSQKKDKLLCSQLQVADFLQNILAQEDTAKGLDPLASEDTSRQKAIAAKEQWKELKATYREHVEAIKIGLTKALTQMEEAQRKRTQLREAFEQLQAKKQMAMEKRRAVQNQWQLQQEKHLQHLAEVSAEVRERKTGTQQELDRVFQKLGNLKQQAEQERDKLQRYQTFLQLLYTLQGKLLFPEAEAEAENLPDDKPQQPTRPQEQSTGDTMGRDPGVSFKAVGLQPAGDVNLP", "values": [{"measurement": "binding", "setting": "[1]", "result": "binds"}]}, {"molecule": "ZW10 interacting kinetochore protein (ZWINT), expressed from a plasmid (protein, UniProt O95229 1-277) MEAAETEAEAAALEVLAEVAGILEPVGLQEEAELPAKILVEFVVDSQKKDKLLCSQLQVADFLQNILAQEDTAKGLDPLASEDTSRQKAIAAKEQWKELKATYREHVEAIKIGLTKALTQMEEAQRKRTQLREAFEQLQAKKQMAMEKRRAVQNQWQLQQEKHLQHLAEVSAEVRERKTGTQQELDRVFQKLGNLKQQAEQERDKLQRYQTFLQLLYTLQGKLLFPEAEAEAENLPDDKPQQPTRPQEQSTGDTMGRDPGVSFKAVGLQPAGDVNLP", "values": [{"measurement": "binding", "setting": "[2]", "result": "binds"}]}, {"molecule": "KIF23 (protein, UniProt Q02241 1-960) MKSARAKTPRKPTVKKGSQTNLKDPVGVYCRVRPLGFPDQECCIEVINNTTVQLHTPEGYRLNRNGDYKETQYSFKQVFGTHTTQKELFDVVANPLVNDLIHGKNGLLFTYGVTGSGKTHTMTGSPGEGGLLPRCLDMIFNSIGSFQAKRYVFKSNDRNSMDIQCEVDALLERQKREAMPNPKTSSSKRQVDPEFADMITVQEFCKAEEVDEDSVYGVFVSYIEIYNNYIYDLLEEVPFDPIKPKPPQSKLLREDKNHNMYVAGCTEVEVKSTEEAFEVFWRGQKKRRIANTHLNRESSRSHSVFNIKLVQAPLDADGDNVLQEKEQITISQLSLVDLAGSERTNRTRAEGNRLREAGNINQSLMTLRTCMDVLRENQMYGTNKMVPYRDSKLTHLFKNYFDGEGKVRMIVCVNPKAEDYEENLQVMRFAEVTQEVEVARPVDKAICGLTPGRRYRNQPRGPVGNEPLVTDVVLQSFPPLPSCEILDINDEQTLPRLIEALEKRHNLRQMMIDEFNKQSNAFKALLQEFDNAVLSKENHMQGKLNEKEKMISGQKLEIERLEKKNKTLEYKIEILEKTTTIYEEDKRNLQQELETQNQKLQRQFSDKRRLEARLQGMVTETTMKWEKECERRVAAKQLEMQNKLWVKDEKLKQLKAIVTEPKTEKPERPSRERDREKVTQRSVSPSPVPLSSNYIAQISNGQQLMSQPQLHRRSNSCSSISVASCISEWEQKIPTYNTPLKVTSIARRRQQEPGQSKTCIVSDRRRGMYWTEGREVVPTFRNEIEIEEDHCGRLLFQPDQNAPPIRLRHRRSRSAGDRWVDHKPASNMQTETVMQPHVPHAITVSVANEKALAKCEKYMLTHQELASDGEIETKLIKGDIYKTRGGGQSVQFTDIETLKQESPNGSRKRRSSTVAPAQPDGAESEWTDVETRCSVAVEMRAGSQLGPGYQHHAQPKRKKP", "values": [{"measurement": "binding", "setting": "[1]", "result": "no binding"}]}, {"molecule": "SLA2 (protein, UniProt Q9H6Q3 1-261) MGSLPSRRKSLPSPSLSSSVQGQGPVTMEAERSKATAVALGSFPAGGPAELSLRLGEPLTIVSEDGDWWTVLSEVSGREYNIPSVHVAKVSHGWLYEGLSREKAEELLLLPGNPGGAFLIRESQTRRGSYSLSVRLSRPASWDRIRHYRIHCLDNGWLYISPRLTFPSLQALVDHYSELADDICCLLKEPCVLQRAGPLPGKDIPLPVTVQRTPLNWKELDSSLLFSEAATGEESLLSEGLRESLSFYISLNDEAVSLDDA", "values": [{"measurement": "binding", "setting": "[1]", "result": "no binding"}]}]}
